# Experimental data published in the supplement of paper PMC11417369.
# The other results are listed elsewhere or left out.
# Tested on: PF3D7_0420300 AP2 domain 1 (GST-tagged)
# Test: gcPBM binding intensity (ln(normalized median fluorescence intensity)); higher = stronger DNA binding
# In short: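 Binding intensity values are the highest Masliner-normalised natural-log median intensity among replicate spots of either probe orientation. The binding step lasted 1 h in 1× PBS with 1% milk, 0.2 mg/ml BSA, 0.5% salmon testes DNA and 0.03% Triton X-100, using GST-tagged P. falciparum DNA-binding domains expressed in E. coli on an Agilent 4 × 180k array of primer-extended double-stranded 36-bp intergenic genomic probes plus negative controls. Alexa488 anti-GST antibody and a 488 nm scan detected bound protein.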
row,Sequence,gcPBM binding intensity (ln)
1,TTGTTCGATATATGCACACAGTTTTGTTATTTTTCC [CACACA_site4972],9.7
2,ATGAATAAATAGGTCACACACAAATATATATAAATA [CACACA_site2416],9.91
3,CACTACACTGTTAATAGTACATATATTTAAAAAAAA [XGTACX_site7371],9.08
4,AAAAAAAACGGACACACACACATAAATATATATAAA [CACACA_site4260],10.3
5,AAAAGGTATAGAAACACACACACGTGAATATAGTTT [CACACA_site1905],9.88
6,CACACCCACCAACACACACACAAAAAAAAAAAGAAA [CACACA_site500],9.59
7,ATATTTTATTTTAATACACACAAGTTATATAATCAC [CACACA_site780],9.5
8,AAAAAAAAAAAAAGTGCACACATAAAAATATGATCT [CACACA_site8090],9.55
9,TACAAATTTATATAAAGTACAAAAAATAATAAAAAT [XGTACX_site7355],9.46
10,ACATATGTTTTATGTAGTACTTATTTATTATTATAT [XGTACX_site7528],9.51
11,TACTTATTGTGATACTTATATTATTTTATGATTAAA [XGTACX_negctrl_site353],9.23
12,TATATTTATTTATATACACACATAATAAAAAATATA [CACACA_site6527],9.4
13,TATTAATGATAAAAAAGTACATTATTATATGATATT [XGTACX_site4235],9.11
14,TTTTTTTTTTTTTTTTCACACATTGTACTTTTTTAT [CACACA_site5193],9.17
15,TAAGTCATATAAATGTGTACATAAAAAAAAAAAATG [XGTACX_site1645],9.32
16,TCTATCAAATTTGAAGGTACACATTTGAGATAATTA [XGTACX_site3797],8.98
17,ATCATTTGCATACGCACACACACATAAAAAGAAAAA [CACACA_site355],9.75
18,ATTATACAAATTGAGGTGCATGAAACAAAATATGAA,9.47
19,ATATTTTTTTTTTTATGTACTTATTTATAATTATTT [XGTACX_site5279],9.49
20,AGCTTGTAACAGTTTACACACTAATATTTATAAATT [CACACA_site6024],9.46
21,CTTATAAGAATACTAGTGCACATAATTTAACGAAAA,9.28
22,AATATGTGTATAGATAGTACACATGCTGATAATATA [XGTACX_site5941],9.42
23,AAAATTTTGGAACGTGCACACATATGTAATATATAT [CACACA_site9004],9.66

row,Sequence,gcPBM binding intensity (ln)
1,TTTTTAAAATATTTAACACACAATTATAATGCATAA [CACACA_site3932],9.14
2,AGTAGTCTGGAGAAATGTACACAGTATCTGGTAGCT [XGTACX_site4871],9.28
3,AATAATAAATAAATGTGTACTTAAAAATATTATATT [XGTACX_site3005],9.35
4,TTGTATCATATATTATGTACATATTGATTTATTACC [XGTACX_site12],9.25
5,CAAAGTATTATGATTACACACATGTGCTTTTTTCTT [CACACA_site163],9.65
6,ATGTCCTATATTAGTACACACATGAAAATATAAATA [CACACA_site7497],9.35
7,TTATTGTTATTTGTTTGTACATAATATAATATATTA [XGTACX_site6477],9.33
8,ACAATTAATCAAACAAGTACAAAATATATCCCTATT [XGTACX_site6223],9.66
9,TCCTATGATGATGATAGTACATATGAGTTCAAAAAA [XGTACX_site273],8.9
10,AATATAAAAAAAAACAAAAAAAAAATTTTGGTTCAC [CACACA_negctrl_site1290],9.18
11,AACCATACACAAATAAACATAGACACAGATACCTCC [CACACA_negctrl_site598],9.81
12,AAAAAAAAAAAAAAAGGTACACAAAACGGTATTATT [XGTACX_site7064],9.6
13,ATACATATTAATATGTGTACACATTTTTATTTTTTT [XGTACX_site930],9.35
14,AACTCATAGGAGTGTGCACACAAAAAATTAAAAAAA [CACACA_site8996],9.64
15,TTTTTTTTTTTTGTCACACATATGGAATATATCTAT [CACACA_site5899],9.26
16,CTCAAAAAATATGAACGTACAAAATAAGTAATGACA [XGTACX_site590],9.51
17,TTTTTTTTTTTTTTTGCACACATTTTAATTATTTTT [CACACA_site341],9.37
18,TTTTAAAAAAGAAAAAAAAAGGATCAGAGAAATATT [GTGCAC_negctrl_site79],9.31
19,TTATATTTATTTAATGAACACACGATATATTATTTT [CACACA_site1601],9.19
20,AAATGTTAATTAAATGCATGTACAAAAGGAGCGAAT [TGCATGCA_site942],10.1
21,AAAAAAATTAATAATGTGCACTTTTTAGTATTTTTA [GTGCAC_site9744],9.03
22,TTGTAGATATTTATATGTACGAATTTATAAATATAG [XGTACX_site3611],8.97
23,TTTGTCAACCAAAATTGTACAAATGTATTCCCAATA [XGTACX_site1350],9.01

row,Sequence,gcPBM binding intensity (ln)
1,TTATTTATCAAAAAATGTACAAAAATATATAAACAA [XGTACX_site940],9.19
2,CTTTTCTATTTTTTCGTGCACTATAAATATTTTAAT,9.42
3,CACCAAAATATATGTACATATGATAAATGTGAATAT [GTGCAC_negctrl_site83],9.43
4,GTCTATATATTTTAGGTGCAACGTAAATGTAAAAAT,9.27
5,AAAATTATCGTTATATGTACGCATCTTAATACGTAT [XGTACX_site4063],9.25
6,TAACTTTTTTTTTTTTTTTTTTAACTTTTATGTAAT [GTGCAC_negctrl_site156],9.06
7,TTTTACAATATTTTGTGTACTTATATTATGAGCTTA [XGTACX_site3287],9.03
8,AACTTTAAACCCTGAACACACACAAATACACCCAAA [CACACA_site7971],9.72
9,TATATATATATATATATATATATATATGTATATATG [XGTACX_negctrl_site242],8.97
10,ATAATCCACAAGCACACACACACACCCATATATATA [CACACA_site1268],10.2
11,AATATATCAAAAATGATGACATAAATATATTAATTT [GTGCAC_negctrl_site530],9.15
12,TAATATCGTATATGAGTGCAATATTTTAGATTTTGA,8.99
13,TGCACGCACAGACACACACACAACTAAAAAATAATG [CACACA_site7250],9.72
14,AAAAAAAGGTAAAATTGTACATACGCACAAAAATAT [XGTACX_site2887],9.35
15,AAAAAAAGGAAATTTACACACACATATAATATACAT [CACACA_site3297],9.93
16,ATTTCCTTGAATGTTGCATGCTGTATTTTAATTAAA [TGCATGCA_site280],9.34
17,TAGATTATTATACTAGTGCAAATTATTTAAGAAAAA,8.92
18,AAAAAAAAAAAGTGCACACATAAAAATATGATCTAA [CACACA_site572],9.53
19,TAAATTTTTCTAAGTGCATGTTAATTTTTCAATTTA [TGCATGCA_site906],9.03
20,TTTAAAAAGTTATGAAGTACATATATATATATATAT [XGTACX_site2188],8.87
21,ATATTATTTATAAAAGTGCAAAAATCACTTCTTTTA [GTGCAC_site9656],8.86
22,AGATGAGAGATATATACACACAATAATACCTATTTA [CACACA_site6542],9.71
23,AATAAATTCATGAATTGTACGTAATGATAACATGAA [XGTACX_site2591],9.38

row,Sequence,gcPBM binding intensity (ln)
1,TTTTTATTCCAGTATTCACACACGAATAACCACATA [CACACA_site1897],9.46
2,ATTTTCTTTTTTAAACGTACACATATTAAATATATA [XGTACX_site7773],9.23
3,TTATAACTTTTCACAAGTACATATATATATGTATAA [XGTACX_site2306],8.97
4,ATATATATGTTTTTATGTACATATTTTTCTCCTTCA [XGTACX_site5899],9.36
5,TTTGGAAAGCGTGATTTTTGACAAACACAAAAAAAA [CACACA_negctrl_site651],8.82
6,ATGTGTATACTAAGAACACACAAGTTACTTGGTGTT [CACACA_site6864],9.41
7,TATTTAAAAGATGAAAGTACACATTTAATTACATTT [XGTACX_site3781],9.08
8,TATATTTAACATACTTTTTTTTTTTTTTTTTTTTTT [CACACA_negctrl_site938],9.01
9,TACATATATCTATGTGTGCACTTATTTCCGGACAAA,9.3
10,TAATTAGCATAATACACATGCATACATTTATATATA [TGCATGCA_site542],9.2
11,AGTCTTTTACATTGCACACACATTTCTTTCCTTTTG [CACACA_site2988],10.1
12,AAAAAAAAAAAACATACACACAAGAACAAAATATGA [CACACA_site3002],10
13,TACAATATTTCGAGCTTGCACTTTTATTAAGTAAAT,9.01
14,TATCTGTATTTGTATACACACAAATGTATTTATTTA [CACACA_site4830],9.48
15,TATACAGACAGACACACACACATATATAAATATGTA [CACACA_site6912],9.92
16,ATTATTATTTTTAACTGTACATAGATATAGATATCC [XGTACX_site8714],9.13
17,TAAGAAAAATATATATGTACACATATATATATATAT [XGTACX_site8542],9
18,TGTATGTTATATACAACACACAAAAAAAAACAAGTT [CACACA_site301],9.55
19,AACTTTTATACGGATACACACAAAAAAAAATAAAAA [CACACA_site6547],9.56
20,TGGGAACAATATATTTGTACTTAAATAAATAAAAAA [XGTACX_site6762],9.04
21,GAACAAAATGATAGAAGTACAAATATTTATTTTGTT [XGTACX_site7146],9.33
22,AAAGAGAAACAAAATTGTACATTATATTGTAGACGT [XGTACX_site976],9.48
